# Test results: PubChem BioAssay AID686970 (National Center for Advancing Translational Sciences (NCATS), 2013)
# About 6,000 (1.7%) of roughly 360,000 compounds were called active. This list was built around the results that the source calls inconclusive (neither active nor inactive); the mix of calls is not that of the screen. Calls come from the whole dose curve; as a rule, active = well fitted cell-killing curve with a large enough effect; inconclusive = small, poorly fitted or top-dose-only effect, or effect the other way; inactive = flat fitted curve, though single readings scatter. No potency is given beside an inconclusive call; the fits are too rough.
# Assay: qHTS for induction of synthetic lethality in tumor cells producing 2HG: qHTS for the HT-1080-NT fibrosarcoma cell line;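 note: NT is the 2HG producing partner of a matched IDH1 knockdown line; nearly all actives have a fitted effect of over 55% in size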;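 for activity, negative = less viability: 0% = DMSO-treated cells and -100% = media-only wells without cells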
# Conditions: HT-1080-NT fibrosarcoma viability, CellTiter-Glo ATP luminescence, 48 h; activity, negative = less viability: at 46.1 µM (top of the series) unless noted
# In short: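 HT-1080-NT fibrosarcoma cells (2HG-overproducing), 750 cells/well in RPMI with 5% FBS, dosed after 2 h and incubated 48 h at 37C. CellTiter-Glo luminescence normalized to DMSO and no-cell wells; concentration-response curves fitted and classed.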
# Potency is the fitted concentration of half-maximal effect; tags give direction and shape of the fitted curve.
Structure (SMILES),Potency,"activity, negative = less viability"
COc1ccc(CC(=O)NC2CCN(CC(=O)N3CCCc4ccccc43)CC2)cc1OC,inactive,–
Cc1ccccc1CN1C(=O)c2ccccc2S1(=O)=O,inactive,–
Cc1cc2cc(C(c3nnnn3C3CCCC3)N(Cc3cccnc3)Cc3ccco3)c(=O)[nH]c2cc1C (centres undefined),"inconclusive [cytotoxic, single point]",–
O=C(Nc1ccc(C2CC2(Cl)Cl)cc1)c1cccc([N+](=O)[O-])c1 (centres undefined),"inconclusive [cytotoxic, single point]",–
Cc1ccc(-c2nc(NCCN3CCOCC3)c3ccccc3n2)cc1,"inconclusive [cytotoxic, single point]",–
COc1cc(/C=C2/OC(=O)c3cc([N+](=O)[O-])ccc32)cc(OC)c1OC,inactive,–
N#CCC(=O)N/N=C/c1cc(-c2ccccc2)n(-c2ccc(Cl)cc2)c1-c1ccccc1,"inconclusive [cytotoxic, single point]",–
COc1cccc(-c2nc(NC(C)C)c3ccccc3n2)c1O,"inconclusive [cytotoxic, partial curve]",–
COc1cccc(C(=O)Nc2ccc(-c3nc4ccccc4o3)c(O)c2)c1,"inconclusive [cytotoxic, single point]",–
c1ccc(C2CNCc3c2ccc2ccccc32)cc1 (centres undefined),"inconclusive [cytotoxic, single point]",–
COc1ccc(-c2nc3ccc(Cl)cn3c2Cc2ccc(C)cc2)cc1OC,"inconclusive [cytotoxic, single point]",–
NS(=O)(=O)c1ccc(NC(=O)COC(=O)C2CC2)cc1,inactive,–
O=C(CCCc1c[nH]c2ccccc12)N[C@@H](Cc1c[nH]c2ccccc12)C(=O)O,inactive,–
N#CC1=C(N)Oc2cc3ccccc3cc2C1c1cccs1 (centres undefined),"inconclusive [cytotoxic, single point]",–
O=C(Nc1sc2c(c1C(=O)O)CCCC2)c1ccc(F)cc1,"inconclusive [cytotoxic, partial curve, poor fit]",–
COCCN(C(=O)CCl)C(C(=O)NC1CCCCC1)c1ccccc1C (centres undefined),"inconclusive [cytotoxic, single point]",–
CC(C)c1ccc(NC(=O)COC(=O)CSc2nnc(N)s2)cc1,inactive,–
Cn1c(CNC(=O)c2ccco2)nnc1SCC(=O)Nc1ccc(Cl)cc1,"inconclusive [cytotoxic, partial curve, poor fit]",–
COc1ccc(C)cc1NC(=O)C(=O)NNC(=O)COc1ccc(Cl)cc1,"inconclusive [cytotoxic, single point]",–
O=C(COc1cccc2cccnc12)Nc1ccccc1,"inconclusive [rising, full curve]",–
CC(=O)N1CCCC(C(=O)c2ccc(Oc3ccccc3)cc2)C1 (centres undefined),active: 23.1 µM,–
O=C(CCl)Nc1cc2[nH]c(=O)[nH]c2cc1Br,active: 10.3 µM,–
COc1ccccc1C(C[N+](=O)[O-])c1c(N)n(C)c(=O)n(C)c1=O (centres undefined),"inconclusive [cytotoxic, partial curve]",–

Structure (SMILES),Potency,"activity, negative = less viability"
O=[N+]([O-])c1ccc(NN=C2CC3CCC2C3)c([N+](=O)[O-])c1 (centres undefined),inactive,–
Cc1cc(C(=O)C(C)OC(=O)c2ccc(NC(=O)CC#N)cc2)c(C)n1-c1ccc(OC(F)F)cc1 (centres undefined),inactive,–
CCOc1ccccc1NC(=O)C1C2CCC(O2)C1C(=O)O (centres undefined),"inconclusive [cytotoxic, single point]",–
Cc1nn(Cc2ccc(Cl)cc2)c(=O)n1N(C)c1ncc(C(F)(F)F)cc1Cl,inactive,–
COc1ccc2c(c1)nc(SCC(=O)c1ccc(Br)s1)n2C,inactive,–
CCC1Nc2ncnc(N3CCN(c4ccccc4)CC3)c2N(Cc2ccc(OC)cc2)C1=O (centres undefined),"inconclusive [cytotoxic, single point]",–
C=Cn1ccnc1P(=S)(c1ccc2c(c1)c1ccccc1n2CC)c1nccn1C=C,"inconclusive [cytotoxic, partial curve, poor fit]",–
CCN(CC(=O)Nc1ccccc1-c1ccccc1)Cc1nc2ccccc2c(=O)[nH]1,active: 5.8 µM,–
O=S(=O)(NC1CC1)c1ccc(S(=O)(=O)N2CCCc3ccccc32)cc1,"inconclusive [cytotoxic, single point]",–
CCCCC(=O)NC(c1ccc(N(CC)CC)cc1)c1ccc2cccnc2c1O (centres undefined),"inconclusive [cytotoxic, full curve]",–
Oc1ccc(/C=N/N2CCN(C3c4ccccc4-c4ccccc43)CC2)c(O)c1,"inconclusive [cytotoxic, single point]",–
COc1ccc(N/N=C(\C=N\O)C(=O)c2ccc(OC)cc2)cc1,"inconclusive [cytotoxic, partial curve]",–
CCOc1ncccc1C(=O)NCc1ccc(C)cc1,inactive,–
CCOC(=O)c1c(C)[nH]c(C)c1C(=O)CSc1nnc(-c2ccc(OC(F)F)cc2)o1,"inconclusive [cytotoxic, single point]",–
COc1ccc(N2CCN(c3nc(Nc4ccc(C)c(F)c4)nc(N4CCCC4)n3)CC2)cc1,"inconclusive [rising, full curve]",–
CC(C)=CCCC(C)CCO (centres undefined),inactive,–
CCCCc1ccc(NC(=O)N[C@H](C(=O)O)C(C)C)cc1,inactive,–
COc1ccc(C(=O)Nc2ccccc2C(=O)N/N=C/c2ccccn2)cc1OC,"inconclusive [cytotoxic, full curve]",–
c1ccc(CNc2nc(NCCOc3ccccc3)c3sccc3n2)cc1,"inconclusive [cytotoxic, single point]",–
CCOC(=O)Cc1csc(NC(=O)c2c(O)c3c(n(CC(C)C)c2=O)CCCC3)n1,"inconclusive [rising, single point]",–
CCCCCCCCN1C(=O)[C@H](CC(=O)N2CCSCC2)C[C@@]2(C(=O)OCC)CCCC=C12,"inconclusive [cytotoxic, single point]",–
C/C(=N\NC(=O)c1nnn(-c2nonc2N)c1CN(C)c1ccccc1)c1ccccn1,"inconclusive [cytotoxic, full curve]",–
Cc1noc(C)c1S(=O)(=O)N1CCC(C(=O)Nc2ccc(Br)cc2)CC1,"inconclusive [cytotoxic, single point]",–

Structure (SMILES),Potency,"activity, negative = less viability"
c1ccc(C2=Nc3cccnc3C(c3ccccc3)=NN2)cc1,inactive,–
O=C(NCc1ccco1)c1cccc(-c2ccc3nncn3c2)c1,–,inconclusive: 0.529%
OC[C@@H]1CN(Cc2ccc(-c3ccccc3)cc2)C[C@H](n2cnc3c(NC4CCCC4)ncnc32)O1,active: 9.2 µM,–
COc1cc(/C=C/C(=O)c2ccccc2O)cc(OC)c1OC,"inconclusive [cytotoxic, single point]",–
CCCn1nc(Oc2nc(SC)nc(N(C)C)n2)ccc1=O,inactive,–
CCCCCc1cc(=O)oc2c(C(CCN3CCCC(C)C3)c3ccc(N(C)C)cc3)c(OC)cc(OC)c12 (centres undefined),"inconclusive [cytotoxic, single point]",–
COc1cccc(C(=O)OCC(=O)NCCC2=CCCCC2)c1,inactive,–
COc1ccccc1N1CCN(c2ncnc3sc(C)c(-c4ccccc4)c23)CC1,"inconclusive [cytotoxic, single point]",–
COc1ccc2nc(C)cc(N3CCN(c4ccccc4)CC3)c2c1,"inconclusive [cytotoxic, partial curve]",–
O=C(NCc1ccco1)C1Cc2c(-c3cccc(F)c3)ccnc2O1 (centres undefined),"inconclusive [cytotoxic, partial curve, poor fit]",–
Cc1ccc(CNc2nc(-c3cccnc3)nc3ccccc23)cc1,"inconclusive [cytotoxic, single point]",–
Cc1n[nH]c(C)c1S(=O)(=O)N(CC(=O)N1CCc2ccccc21)c1ccc(C(C)C)cc1,"inconclusive [cytotoxic, single point]",–
CCN(CCCNC(=O)CCc1nc(-c2ccc(OC)cc2)no1)c1cccc(C)c1,"inconclusive [cytotoxic, single point]",–
CCOC(=O)c1c(C)[nH]c(C2=NNC(=Nc3ccccc3OC)SC2)c1C,"inconclusive [cytotoxic, single point]",–
COc1ccccc1C=NN=C(NN=Cc1ccccc1OC)NN=Cc1ccccc1OC,"inconclusive [cytotoxic, single point]",–
CCn1c(O)c(/C=C2\C=NN=C2c2ccccc2)sc1=S,"inconclusive [cytotoxic, single point]",–
COc1cccc(CNC(=O)Cc2ccc(-n3c(=O)[nH]c4ccccc4c3=O)cc2)c1,"inconclusive [cytotoxic, single point]",–
CCC(CC)COC(=O)C(C#N)c1nc2ccccc2nc1N1CCN(CC)CC1 (centres undefined),"inconclusive [cytotoxic, single point]",–
CCc1cc2c3c(c1)C1(C(=O)N3C(C)(C)C=C2C)C(C#N)=C(N)Oc2[nH]c(=O)[nH]c(=O)c21 (centres undefined),active: 23.1 µM,–
Cc1ccccc1OCc1nc(-c2ccc(NC(=O)c3ccc4c(c3)OCO4)cc2)no1,active: 20.6 µM,–
CC(C)c1nnc(N2C(=O)c3oc4ccccc4c(=O)c3C2c2ccco2)s1 (centres undefined),inactive,–
O=C(NNC(=O)c1ccccc1O)c1ccccc1O,"inconclusive [cytotoxic, partial curve]",–
CCc1ccccc1NC(=O)CNC(=O)c1cccc(S(=O)(=O)N2CCN(Cc3ccccc3)CC2)c1,inactive,–
